This is one part of the list.
Legend:
Experiment in all cases: glycan array binding signal (z-score within array); higher = stronger binding
Settings in all cases: glycan notation: IUPAC condensed, linker removed
Gal(a1-3)Gal = target: Gal(a1-3)Gal
In short: (§1)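 Arrays were curated from the Consortium for Functional Glycomics database, 3228 in total, and kept only where the protein sequence was available. Binding is expressed as a within-array Z-score. This score was averaged across arrays of the same protein sequence at different concentrations or buffers and across linkers, and negative values can be read as non-binding.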

Gal(a1-3)Gal(b1-3)GlcNAc = target: Gal(a1-3)Gal(b1-3)GlcNAc
In short: as §1

[1] = target: Gal(a1-3)Gal(b1-3)GlcNAc(b1-2)Man
In short: as §1

[2] = target: Gal(a1-3)Gal(b1-3)GlcNAc(b1-2)Man(a1-3)[Gal(a1-3)Gal(b1-3)GlcNAc(b1-2)Man(a1-6)]Man(b1-4)GlcNAc(b1-4)GlcNAc
In short: as §1

[3] = target: Gal(a1-3)Gal(b1-3)GlcNAc(b1-3)GalNAc
In short: as §1

[4] = target: Gal(a1-3)Gal(b1-3)GlcNAc(b1-6)GalNAc
In short: as §1

[5] = target: Gal(a1-3)Gal(b1-3)[Fuc(a1-4)]GlcNAc(b1-2)Man(a1-3)[Gal(a1-3)Gal(b1-3)[Fuc(a1-4)]GlcNAc(b1-2)Man(a1-6)]Man(b1-4)GlcNAc(b1-4)GlcNAc
In short: as §1

Gal(a1-3)Gal(b1-4)Glc = target: Gal(a1-3)Gal(b1-4)Glc
In short: as §1

Gal(a1-3)Gal(b1-4)GlcNAc = target: Gal(a1-3)Gal(b1-4)GlcNAc
In short: as §1

[6] = target: Gal(a1-3)Gal(b1-4)GlcNAc(b1-2)Man
In short: as §1

[7] = target: Gal(a1-3)Gal(b1-4)GlcNAc(b1-2)Man(a1-3)[Gal(a1-3)Gal(b1-4)GlcNAc(b1-2)Man(a1-6)]Man(b1-4)GlcNAc(b1-4)GlcNAc
In short: as §1

[8] = target: Gal(a1-3)Gal(b1-4)GlcNAc(b1-3)GalNAc
In short: as §1

[9] = target: Gal(a1-3)Gal(b1-4)GlcNAc(b1-6)GalNAc
In short: as §1

[10] = target: Gal(a1-3)Gal(b1-4)[Fuc(a1-3)]GlcNAc
In short: as §1

[11] = target: Gal(a1-3)Gal(b1-4)[Fuc(a1-3)]GlcNAc(b1-2)Man(a1-3)[Gal(a1-3)Gal(b1-4)[Fuc(a1-3)]GlcNAc(b1-2)Man(a1-6)]Man(b1-4)GlcNAc(b1-4)GlcNAc
In short: as §1

Gal(a1-3)GalNAc = target: Gal(a1-3)GalNAc
In short: as §1

[12] = target: Gal(a1-3)[Gal(a1-4)]Gal(b1-4)GlcNAc
In short: as §1

[13] = target: Gal(a1-4)Gal(b1-3)GlcNAc(b1-2)Man(a1-3)[Gal(a1-4)Gal(b1-3)GlcNAc(b1-2)Man(a1-6)]Man(b1-4)GlcNAc(b1-4)GlcNAc
In short: as §1

Gal(a1-4)Gal(b1-4)Glc = target: Gal(a1-4)Gal(b1-4)Glc
In short: as §1

Gal(a1-4)Gal(b1-4)GlcNAc = target: Gal(a1-4)Gal(b1-4)GlcNAc
In short: as §1

[14] = target: Gal(a1-4)Gal(b1-4)GlcNAc(b1-2)Man(a1-3)[Gal(a1-4)Gal(b1-4)GlcNAc(b1-2)Man(a1-6)]Man(b1-4)GlcNAc(b1-4)GlcNAc
In short: as §1

[15] = target: Gal(a1-4)Gal(b1-4)GlcNAc(b1-3)Gal(b1-4)Glc
In short: as §1

Gal(a1-4)GlcNAc = target: Gal(a1-4)GlcNAc
In short: as §1

Gal(a1-6)Glc = target: Gal(a1-6)Glc
In short: as §1

Gal(b1-2)Gal = target: Gal(b1-2)Gal
In short: as §1

Gal(b1-3)Gal = target: Gal(b1-3)Gal
In short: as §1

Gal(b1-3)Gal(b1-4)GlcNAc = target: Gal(b1-3)Gal(b1-4)GlcNAc
In short: as §1

Gal(b1-3)GalNAc = target: Gal(b1-3)GalNAc
In short: as §1

[16] = target: Gal(b1-3)GalNAc(a1-3)[Fuc(a1-2)]Gal(b1-4)Glc
In short: as §1

[17] = target: Gal(b1-3)GalNAc(a1-3)[Fuc(a1-2)]Gal(b1-4)GlcNAc
In short: as §1

Gal(b1-3)GalNAc(b1-3)Gal = target: Gal(b1-3)GalNAc(b1-3)Gal
In short: as §1

[18] = target: Gal(b1-3)GalNAc(b1-3)Gal(a1-4)Gal(b1-4)Glc
In short: as §1

[19] = target: Gal(b1-3)GalNAc(b1-4)Gal(b1-4)Glc
In short: as §1

[20] = target: Gal(b1-3)GalNAc(b1-4)[Neu5Ac(a2-3)]Gal(b1-4)Glc
In short: as §1

Gal(b1-3)GlcNAc = target: Gal(b1-3)GlcNAc
In short: as §1

[21] = target: Gal(b1-3)GlcNAc(a1-3)Gal(b1-4)GlcNAc
In short: as §1

[22] = target: Gal(b1-3)GlcNAc(a1-6)Gal(b1-4)GlcNAc
In short: as §1

Gal(b1-3)GlcNAc(b1-2)Man = target: Gal(b1-3)GlcNAc(b1-2)Man
In short: as §1

B1: MGL (Homo sapiens), Q8IUN9 (protein)
chain: MTRTYENFQYLENKVKVQGFKNGPLPLQSLLQRLCSGPCHLLLSLGLGLLLLVIICVVGFQNSKFQRDLVTLRTDFSNFTSNTVAEIQALTSQGSSLEETIASLKAEVEGFKQERQAGVSELQEHTTQKAHLGHCPHCPSVCVPVHSEMLLRVQQLVQDLKKLTCQVATLNNNASTEGTCCPVNWVEHQDSCYWFSHSGMSWAEAEKYCQLKNAHLVVINSREEQNFVQKYLGSAYTWMGLSDPEGAWKWVDGTDYATGFQNWKPGQPDDWQGHGLGGGEDCAHFHPDGRWNDDVCQRPYHWVCEAGLGQTSQESH
Gal(a1-3)Gal
  glycan array binding signal (z-score): -0.235
Gal(a1-3)Gal(b1-3)GlcNAc
  glycan array binding signal (z-score): -0.235
[1]
  glycan array binding signal (z-score): -0.236
[2]
  glycan array binding signal (z-score): -0.24
[3]
  glycan array binding signal (z-score): -0.241
[4]
  glycan array binding signal (z-score): 3.37
[5]
  glycan array binding signal (z-score): -0.216
Gal(a1-3)Gal(b1-4)Glc
  glycan array binding signal (z-score): -0.24
Gal(a1-3)Gal(b1-4)GlcNAc
  glycan array binding signal (z-score): -0.248
[6]
  glycan array binding signal (z-score): -0.252
[7]
  glycan array binding signal (z-score): -0.246
[8]
  glycan array binding signal (z-score): -0.243
[9]
  glycan array binding signal (z-score): 3.79
[10]
  glycan array binding signal (z-score): -0.244
[11]
  glycan array binding signal (z-score): -0.242
Gal(a1-3)GalNAc
  glycan array binding signal (z-score): -0.208
[12]
  glycan array binding signal (z-score): -0.22
[13]
  glycan array binding signal (z-score): -0.239
Gal(a1-4)Gal(b1-4)Glc
  glycan array binding signal (z-score): 0.107
Gal(a1-4)Gal(b1-4)GlcNAc
  glycan array binding signal (z-score): -0.232
[14]
  glycan array binding signal (z-score): -0.236
[15]
  glycan array binding signal (z-score): -0.247
Gal(a1-4)GlcNAc
  glycan array binding signal (z-score): -0.249
Gal(a1-6)Glc
  glycan array binding signal (z-score): -0.247
Gal(b1-2)Gal
  glycan array binding signal (z-score): -0.271
Gal(b1-3)Gal
  glycan array binding signal (z-score): -0.252
Gal(b1-3)Gal(b1-4)GlcNAc
  glycan array binding signal (z-score): -0.245
Gal(b1-3)GalNAc
  glycan array binding signal (z-score): -0.242
[16]
  glycan array binding signal (z-score): -0.232
[17]
  glycan array binding signal (z-score): -0.251
Gal(b1-3)GalNAc(b1-3)Gal
  glycan array binding signal (z-score): -0.249
[18]
  glycan array binding signal (z-score): 0.394
[19]
  glycan array binding signal (z-score): -0.269
[20]
  glycan array binding signal (z-score): 0.605
Gal(b1-3)GlcNAc
  glycan array binding signal (z-score): -0.247
[21]
  glycan array binding signal (z-score): -0.245
[22]
  glycan array binding signal (z-score): -0.241
Gal(b1-3)GlcNAc(b1-2)Man
  glycan array binding signal (z-score): -0.235

From the supplement of paper PMC8728848
